The other results are listed elsewhere or left out. Values were computed here from the reads of four pooled replicates and scatter widely.
The sequences below were run against T1, Pho4 (S. cerevisiae) (UniProt P07270) (assay: relative binding free energy (BET-seq); higher = weaker binding). Conditions: reference: library average.
T1 sequence: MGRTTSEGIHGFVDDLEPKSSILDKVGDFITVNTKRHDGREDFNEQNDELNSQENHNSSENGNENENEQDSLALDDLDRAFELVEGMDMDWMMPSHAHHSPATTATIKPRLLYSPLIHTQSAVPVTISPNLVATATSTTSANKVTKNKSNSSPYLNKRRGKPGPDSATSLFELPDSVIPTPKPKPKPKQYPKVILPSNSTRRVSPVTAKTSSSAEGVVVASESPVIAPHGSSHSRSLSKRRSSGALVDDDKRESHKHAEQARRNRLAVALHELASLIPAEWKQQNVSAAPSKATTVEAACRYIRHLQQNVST

Sequence | relative binding free energy
TGCTGCACGTGTAAGG | 0.11 kcal/mol
TACAGCACGTGGATGG | 0.09 kcal/mol
GAGAGCACGTGGGCAT | -0.24 kcal/mol
GGAGGCACGTGGGTCT | -0.29 kcal/mol
GTTTGCACGTGTGAGT | 0.12 kcal/mol
GGATACACGTGTTCGG | 0.16 kcal/mol
TTACTCACGTGGGATT | -0.01 kcal/mol
GGTTCCACGTGTTTCG | 0.14 kcal/mol
TGTGTCACGTGATGTG | 0.15 kcal/mol
CCTAGCACGTGTGGGG | -0.05 kcal/mol
TTTTGCACGTGTTATC | -0.02 kcal/mol
TCTGCCACGTGGGTGT | -0.18 kcal/mol
GTTCGCACGTGCGGGG | -0.06 kcal/mol
GTGATCACGTGTGTGT | 0.14 kcal/mol
TATTTCACGTGTACTT | 0.22 kcal/mol
GGCGTCACGTGGATGG | 0.13 kcal/mol
GTAGGCACGTGTGAAA | 0.14 kcal/mol
TGTGGCACGTGTGTTC | 0 kcal/mol
ATGTACACGTGAATTT | 0.29 kcal/mol
TGTGGCACGTGGGGCT | -0.18 kcal/mol
GAAAGCACGTGAGCGT | 0.35 kcal/mol
TCGTTCACGTGTGAGA | 0.33 kcal/mol
GGACGCACGTGGCTGT | -0.05 kcal/mol
GGGATCACGTGGGGAA | 0.05 kcal/mol
TTAAACACGTGTTTAT | -0.14 kcal/mol
CGTGTCACGTGTTGGA | 0.32 kcal/mol

Sequence | relative binding free energy
GGTTTCACGTGAAAAT | 0.49 kcal/mol
ATGCTCACGTGTGATT | 0.31 kcal/mol
ATTTACACGTGTGTGA | 0.08 kcal/mol
TACGGCACGTGGGGTG | -0.28 kcal/mol
ATATCCACGTGTGTGG | 0.02 kcal/mol
ACATGCACGTGTGGTT | -0.01 kcal/mol
CATTTCACGTGTTCGT | 0.13 kcal/mol
TTATGCACGTGTAGCT | 0.04 kcal/mol
GGTATCACGTGAGTGC | 0.34 kcal/mol
ATGTGCACGTGTGGTA | -0.09 kcal/mol
AGGGACACGTGTTCTG | 0.12 kcal/mol
AGTTACACGTGATGGG | 0.25 kcal/mol
ATATGCACGTGTTTTT | 0 kcal/mol
GGGTGCACGTGGCCTT | -0.08 kcal/mol
TTGTGCACGTGAGATA | 0.27 kcal/mol
TATGCCACGTGGGAGT | -0.18 kcal/mol
TAGTGCACGTGGTTAA | -0.12 kcal/mol
GGAGACACGTGGTATT | 0.04 kcal/mol
AGTGACACGTGCGGAT | -0.07 kcal/mol
ATTCTCACGTGTTGGC | 0.18 kcal/mol
TCATTCACGTGGTCTT | 0.28 kcal/mol
AGTGTCACGTGTGCGT | 0.04 kcal/mol
TAGTGCACGTGCGAGG | -0.1 kcal/mol
AAGGGCACGTGGAATG | -0.08 kcal/mol
TGAAGCACGTGTGTTC | 0 kcal/mol
ATTGTCACGTGTCGGC | 0.04 kcal/mol

Sequence | relative binding free energy
TGAGTCACGTGGATCG | 0.09 kcal/mol
TTCCTCACGTGGGTGA | 0.2 kcal/mol
AGTCTCACGTGTTTAG | 0.2 kcal/mol
TTCGTCACGTGACGGG | 0.24 kcal/mol
GTCTTCACGTGTTTAA | 0.17 kcal/mol
AGGTGCACGTGTTCGT | -0.13 kcal/mol
GTGAACACGTGTATTT | 0 kcal/mol
GGTATCACGTGAGCGA | 0.25 kcal/mol
TTATGCACGTGCGTAT | -0.07 kcal/mol
GTTGGCACGTGTTGCT | -0.1 kcal/mol
GATGACACGTGCAGGG | 0.06 kcal/mol
TGTGTCACGTGGCTTA | -0.16 kcal/mol
TGGATCACGTGGTCCT | 0.17 kcal/mol
GGTCGCACGTGGAGAG | 0.18 kcal/mol
GGAAGCACGTGTGCGG | -0.09 kcal/mol
GGTGACACGTGATGAG | 0.15 kcal/mol
CTTGTCACGTGGGGGC | -0.03 kcal/mol
GGTGACACGTGGCATG | -0.1 kcal/mol
AGTCTCACGTGGGGGG | 0.11 kcal/mol
GTGAACACGTGATGCT | 0.4 kcal/mol
TACTGCACGTGGAGGT | -0.11 kcal/mol
TAGAGCACGTGGTAAG | -0.1 kcal/mol
ATTTACACGTGCGGGC | 0.07 kcal/mol
CAATTCACGTGTTGGG | 0.15 kcal/mol
ATATTCACGTGTTACT | 0.22 kcal/mol
GAGGACACGTGATAGG | 0.14 kcal/mol

Sequence | relative binding free energy
GTCTGCACGTGGCGGT | -0.09 kcal/mol
AGGACCACGTGGTTGA | -0.1 kcal/mol
TGAGACACGTGCGGTG | -0.07 kcal/mol
AAGTACACGTGCTTGT | 0.1 kcal/mol
AGTGGCACGTGGCCGT | -0.18 kcal/mol
GTCTACACGTGGGGCT | -0.03 kcal/mol
GGGGGCACGTGGCGTC | -0.18 kcal/mol
GGTGCCACGTGCGTGA | -0.11 kcal/mol
GTCTTCACGTGGGTTG | 0.22 kcal/mol
GATATCACGTGTTTTG | 0.27 kcal/mol
TGGGGCACGTGGGCAT | -0.19 kcal/mol
TTCGGCACGTGGGTGT | -0.17 kcal/mol
TATAGCACGTGGTTGC | -0.18 kcal/mol
GGGCGCACGTGTGGTC | -0.11 kcal/mol
TTTAGCACGTGATGGA | 0.07 kcal/mol
TTCGTCACGTGTAGGG | 0.09 kcal/mol
GTTATCACGTGATTAA | 0.18 kcal/mol
TAATGCACGTGCAGGT | -0.11 kcal/mol
CTGTGCACGTGTGAGC | 0.1 kcal/mol
GTTGTCACGTGCGGAA | -0.05 kcal/mol
ATTATCACGTGTAAGA | 0.14 kcal/mol
CGGTTCACGTGTACTG | 0.31 kcal/mol
TCTGGCACGTGTTTCA | -0.08 kcal/mol
CGGGGCACGTGCCGGG | -0.16 kcal/mol
GGGAACACGTGTAGGC | 0.19 kcal/mol
AAATACACGTGGTTTT | 0.06 kcal/mol

Sequence | relative binding free energy
GTTGCCACGTGGATAG | -0.01 kcal/mol
CCGTGCACGTGTTGTA | -0.07 kcal/mol
GAGGGCACGTGTGAAA | -0.07 kcal/mol
TGTTACACGTGTAAGA | 0.15 kcal/mol
AGGAACACGTGTTCGG | 0.02 kcal/mol
GAGGTCACGTGAATTG | 0.54 kcal/mol
ACGTGCACGTGGGTGA | -0.16 kcal/mol
TTAAACACGTGGGTAG | -0.1 kcal/mol
GAGGGCACGTGAAAAG | 0.23 kcal/mol
TTGGTCACGTGGTGTC | 0.12 kcal/mol
TTCGTCACGTGATTAA | 0.28 kcal/mol
GGGGGCACGTGCGTTC | -0.19 kcal/mol
TGTTACACGTGGAGTT | 0.22 kcal/mol
CGGTGCACGTGTGGAA | 0.13 kcal/mol
TTTGTCACGTGAAAGT | 0.29 kcal/mol
AATCTCACGTGGGTTG | 0.15 kcal/mol
TTTGACACGTGTTGGG | 0.14 kcal/mol
TTCCTCACGTGTGTGG | 0.35 kcal/mol
TCTGGCACGTGGTTGT | -0.11 kcal/mol
TGTGGCACGTGAACAG | -0.01 kcal/mol
AGGTACACGTGTTGCA | 0.08 kcal/mol
CTGAGCACGTGAGGAG | 0.24 kcal/mol
CGGGTCACGTGAATGC | 0.41 kcal/mol
GAGGGCACGTGTTAGT | -0.06 kcal/mol
GGGACCACGTGGGGTG | -0.24 kcal/mol
TAGGCCACGTGGGAGG | -0.27 kcal/mol

Sequence | relative binding free energy
GGCGTCACGTGTGTTG | 0.15 kcal/mol
GGTTGCACGTGGCGTA | 0 kcal/mol
AGGGGCACGTGGTATA | -0.14 kcal/mol
GGGTACACGTGCGTGC | 0.05 kcal/mol
TTATGCACGTGATCGG | -0.03 kcal/mol
AGGTCCACGTGTGTTT | 0.03 kcal/mol
TTGGGCACGTGCGGAG | -0.09 kcal/mol
GTGGGCACGTGCGCTG | -0.2 kcal/mol
TGGCTCACGTGATGGA | 0.24 kcal/mol
TCGAGCACGTGTGGCT | 0 kcal/mol
GGGTTCACGTGACGTT | 0.33 kcal/mol
ATGTGCACGTGGAGGA | -0.06 kcal/mol
GGGATCACGTGAGTGA | 0.38 kcal/mol
AGGTTCACGTGGTATT | 0.23 kcal/mol
TGGCGCACGTGGTAAG | -0.16 kcal/mol
ATTGACACGTGGGCGG | -0.3 kcal/mol
GGTAGCACGTGAAGGA | 0.21 kcal/mol
CAATTCACGTGGTGTA | 0.11 kcal/mol
GCGTTCACGTGTGAAT | 0.36 kcal/mol
GAGTGCACGTGGGTAG | -0.07 kcal/mol
TGAGGCACGTGAGGGC | 0.17 kcal/mol
AGATGCACGTGAGTTT | 0.3 kcal/mol
AGGTGCACGTGTATTT | -0.05 kcal/mol
CAAGGCACGTGTGCGT | -0.13 kcal/mol
TAGAACACGTGAGGTT | 0.31 kcal/mol
TTTAGCACGTGGGTGC | -0.21 kcal/mol

Sequence | relative binding free energy
ACATTCACGTGTGTGG | 0.24 kcal/mol
TTGAACACGTGGGGAT | -0.02 kcal/mol
AGAGTCACGTGGCGTT | 0.02 kcal/mol
GCGTGCACGTGATTTG | 0.11 kcal/mol
GTGTACACGTGTTCTG | -0.01 kcal/mol
TTACGCACGTGTTAGG | -0.21 kcal/mol
TAGGGCACGTGTATAG | -0.14 kcal/mol
TGGTTCACGTGGCGTC | 0.28 kcal/mol
AAAAGCACGTGGATTG | -0.02 kcal/mol
CTGAACACGTGAGTGG | 0.14 kcal/mol
TATGTCACGTGCTCGG | 0.02 kcal/mol
ATTGTCACGTGAGATG | 0.22 kcal/mol
AAGGGCACGTGTGGTA | -0.17 kcal/mol
AGTCACACGTGCGTGG | 0.05 kcal/mol
AATTTCACGTGTCGGG | 0.21 kcal/mol
ATCTTCACGTGGTCGT | 0.18 kcal/mol
TTTGGCACGTGGTGTC | -0.19 kcal/mol
TGGTACACGTGGTGAT | -0.07 kcal/mol
GTGGACACGTGGATAA | 0.09 kcal/mol
GGGTACACGTGAGTCG | 0.33 kcal/mol
CTACGCACGTGTGGTG | 0.01 kcal/mol
TTTCTCACGTGTGATT | 0.16 kcal/mol
ATAGGCACGTGAAGTA | -0.01 kcal/mol
AGTCGCACGTGACGGG | 0.04 kcal/mol
TAGGTCACGTGAATTG | 0.36 kcal/mol
AGGTCCACGTGTAGTT | 0.04 kcal/mol

Sequence | relative binding free energy
TTCTTCACGTGTATAG | 0.15 kcal/mol
AAAATCACGTGTGGGT | 0.27 kcal/mol
AATATCACGTGTTGAG | 0.14 kcal/mol
CGCGGCACGTGTGCGG | 0.01 kcal/mol
GTGTACACGTGTTAAT | 0.02 kcal/mol
ATCGTCACGTGGGCTG | 0.04 kcal/mol
GTGTACACGTGGACGT | 0.1 kcal/mol
GGGGGCACGTGGGATA | -0.16 kcal/mol
TGTCACACGTGTGTTC | 0.35 kcal/mol
TTTGGCACGTGTGTAC | -0.08 kcal/mol
TAAGACACGTGGCTGT | -0.04 kcal/mol
TCGTTCACGTGGCTAG | 0.26 kcal/mol
TGCTACACGTGAGTTT | 0.37 kcal/mol
GTAATCACGTGGTCTG | 0 kcal/mol
GTTGACACGTGGCATG | -0.14 kcal/mol
TGATTCACGTGTTTGC | 0.23 kcal/mol
ATGAACACGTGATTTG | 0.18 kcal/mol
CTCGGCACGTGGGTGG | -0.19 kcal/mol
TGGTTCACGTGGGGTC | 0.21 kcal/mol
ACTGGCACGTGAGTGG | 0.08 kcal/mol
CGTATCACGTGGAGGG | 0.1 kcal/mol
TTCCGCACGTGTTATA | 0.19 kcal/mol
TTTGTCACGTGGGATT | -0.01 kcal/mol
TGTGGCACGTGACGGT | -0.05 kcal/mol
GTGAGCACGTGCGTTA | -0.11 kcal/mol
ATTTCCACGTGGGGAG | -0.12 kcal/mol

Sequence | relative binding free energy
AAGGACACGTGTGTTT | 0.07 kcal/mol
CGTGTCACGTGGGAGT | -0.09 kcal/mol
GGAAGCACGTGTGTAT | -0.09 kcal/mol
TGACTCACGTGTATGT | 0.05 kcal/mol
TAGTGCACGTGGTAGG | -0.16 kcal/mol
TTGTTCACGTGGAACA | 0.27 kcal/mol
AGTAACACGTGGGGAC | 0.02 kcal/mol
TTAGGCACGTGTTTTA | 0.02 kcal/mol
TGATGCACGTGGGTGG | -0.15 kcal/mol
GGGGCCACGTGAGGTC | 0.27 kcal/mol
TTGCGCACGTGAGATA | 0.18 kcal/mol
CGTCTCACGTGGGGGT | 0.07 kcal/mol
GCATGCACGTGAAGTG | 0.34 kcal/mol
TGTTTCACGTGGGAAG | 0.32 kcal/mol
GTGTTCACGTGTAGGT | 0.13 kcal/mol
TTTTTCACGTGATACA | 0.27 kcal/mol
GGGTGCACGTGAAGCT | 0.33 kcal/mol
GCTTCCACGTGGTTTG | 0.18 kcal/mol
AGGCGCACGTGGATAG | 0.04 kcal/mol
TAGTACACGTGGAGCG | 0.25 kcal/mol
AGGGTCACGTGCCGGT | 0.02 kcal/mol
GTTTGCACGTGTTTGA | 0.12 kcal/mol

Reference: the BET-seq Pho4 binding data (Le et al. 2018)
